Source: paper PMC5216124, “Cell division orientation is coupled to cell–cell adhesion by the E-cadherin/LGN complex” (Nature Communications, 2017)
No constants are given. Whether binding was seen depends on the method and setting. For some of these results: Binding seen in cells or lysates may run through a third protein. Some results given as binding are weak or reduced against the parent protein; the word gives no strength. For some of these results: Tags and fused reporters may be left off the sequences shown. Each block holds one molecule with its values, some of them ahead of it.

Sequences of proteins named here, by UniProt entry; tags and fusion partners are left off. A change or cut given only in a name is not applied to a line headed by its entry. A line that says so, or that is headed by a name, gives the form on record, which may keep a tag or linker. Residues count along the entry.
E-cadherin juxtamembrane domain fused to the RFP-tagged mitochondrial localization signal of ActA (P09803, residues 736-783): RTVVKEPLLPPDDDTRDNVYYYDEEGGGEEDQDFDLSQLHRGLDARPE
E-cadherin JMD D758A, targeted to mitochondria (P09803, form named): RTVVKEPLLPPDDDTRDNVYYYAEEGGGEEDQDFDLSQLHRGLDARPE
E-cadherin JMD with DEE758-760AAA mutation, targeted to mitochondria (P09803, form named): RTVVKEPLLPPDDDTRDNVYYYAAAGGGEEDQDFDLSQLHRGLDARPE

Tests used:
LGN-TPR:S-tag = target: T1, LGN-TPR:S-tag (human, UniProt P81274 8-311); assay: pull-down; in vitro competition: E-cad-cyto/LGN-TPR:S-tag complex (GST cleaved off with TEV) held on S-protein agarose by the S-tag; 100 μg NuMA (1808-1988) added, 4 °C overnight; blotted for LGN and E-cadherin; both purified
T1 construct: LGN, human, NM_013296.4, TPR repeats, amino acids 8-311; also called LGN-TPR with C-terminal S-tag; not shown: S-tag, C-terminal, kept
T1 sequence (looked up): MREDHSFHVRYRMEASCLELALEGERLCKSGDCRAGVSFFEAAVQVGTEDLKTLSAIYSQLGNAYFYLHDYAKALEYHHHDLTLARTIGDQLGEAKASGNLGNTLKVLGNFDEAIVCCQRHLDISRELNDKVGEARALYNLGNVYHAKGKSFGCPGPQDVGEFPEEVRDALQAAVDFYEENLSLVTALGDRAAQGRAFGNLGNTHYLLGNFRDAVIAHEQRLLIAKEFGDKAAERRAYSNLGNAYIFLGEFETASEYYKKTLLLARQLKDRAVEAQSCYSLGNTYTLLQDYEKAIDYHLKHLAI

[1] = target: GST-tagged cytosolic tail of mouse E-cadherin (mouse) (UniProt P09803); assay: pull-down; GST pull-down on glutathione agarose from cleared lysate of E. coli co-expressing both proteins; wash 20 mM Tris-HCl pH 7.5, 150 mM NaCl, 2.5 mM DTT, 0.005% Tween, 2.5% glycerol, 4 °C; blotted for GST and LGN
[2] = target: E-cadherin juxtamembrane domain fused to the RFP-tagged mitochondrial localization signal of ActA (mouse) (UniProt P09803); assay: mitochondrial co-recruitment assay (live-cell confocal imaging); E-cadherin tail constructs fused to RFP-tagged MLS of ActA held at mitochondria of U2OS cells; recruitment of co-expressed YFP-LGN-TPR or GFP-p120-catenin scored as fluorescence at mitochondria
[3] = target: E-cadherin JMD D758A, targeted to mitochondria (mouse) (UniProt P09803); assay: as above
[4] = target: E-cadherin JMD with DEE758-760AAA mutation, targeted to mitochondria (mouse) (UniProt P09803); assay: as above

- binding (LGN-TPR:S-tag): binds
Molecule: E-cadherin cytosolic tail, GST cleaved off (from UniProt P09803 736-783) (domain or fragment)

- binding [1]: binds
B1: TPR repeats of human LGN (domain or fragment, UniProt P81274 8-311)
chain: T1 sequence (looked up)

- binding [2]: binds
- binding [3]: binds
B2: GFP-p120-catenin (protein, UniProt O60716 1-968)
chain: MDDSEVESTASILASVKEQEAQFEKLTRALEEERRHVSAQLERVRVSPQDANPLMANGTLTRRHQNGRFVGDADLERQKFSDLKLNGPQDHSHLLYSTIPRMQEPGQIVETYTEEDPEGAMSVVSVETSDDGTTRRTETTVKKVVKTVTTRTVQPVAMGPDGLPVDASSVSNNYIQTLGRDFRKNGNGGPGPYVGQAGTATLPRNFHYPPDGYSRHYEDGYPGGSDNYGSLSRVTRIEERYRPSMEGYRAPSRQDVYGPQPQVRVGGSSVDLHRFHPEPYGLEDDQRSMGYDDLDYGMMSDYGTARRTGTPSDPRRRLRSYEDMIGEEVPSDQYYWAPLAQHERGSLASLDSLRKGGPPPPNWRQPELPEVIAMLGFRLDAVKSNAAAYLQHLCYRNDKVKTDVRKLKGIPVLVGLLDHPKKEVHLGACGALKNISFGRDQDNKIAIKNCDGVPALVRLLRKARDMDLTEVITGTLWNLSSHDSIKMEIVDHALHALTDEVIIPHSGWEREPNEDCKPRHIEWESVLTNTAGCLRNVSSERSEARRKLRECDGLVDALIFIVQAEIGQKDSDSKLVENCVCLLRNLSYQVHREIPQAERYQEAAPNVANNTGPHAASCFGAKKGKDEWFSRGKKPIEDPANDTVDFPKRTSPARGYELLFQPEVVRIYISLLKESKTPAILEASAGAIQNLCAGRWTYGRYIRSALRQEKALSAIADLLTNEHERVVKAASGALRNLAVDARNKELIGKHAIPNLVKNLPGGQQNSSWNFSEDTVISILNTINEVIAENLEAAKKLRETQGIEKLVLINKSGNRSEKEVRAAALVLQTIWGYKELRKPLEKEGWKKSDFQVNLNNASRSQSSHSYDDSTLPLIDRNQKSDKKPDREEIQMSNMGSNTKSLDNNYSTPNERGDHNRTLDRSGDLGDMEPLKGTTPLMQDEGQESLEEELDVLVLDDEGGQVSYPSMQKI

- binding [2]: binds
- binding [3]: no binding
- binding [4]: no binding
B3: YFP-tagged TPR repeats of human LGN (domain or fragment, UniProt P81274 8-351)
chain: MREDHSFHVRYRMEASCLELALEGERLCKSGDCRAGVSFFEAAVQVGTEDLKTLSAIYSQLGNAYFYLHDYAKALEYHHHDLTLARTIGDQLGEAKASGNLGNTLKVLGNFDEAIVCCQRHLDISRELNDKVGEARALYNLGNVYHAKGKSFGCPGPQDVGEFPEEVRDALQAAVDFYEENLSLVTALGDRAAQGRAFGNLGNTHYLLGNFRDAVIAHEQRLLIAKEFGDKAAERRAYSNLGNAYIFLGEFETASEYYKKTLLLARQLKDRAVEAQSCYSLGNTYTLLQDYEKAIDYHLKHLAIAQELNDRIGEGRACWSLGNAYTALGNHDQAMHFAEKHLEI
